Experimental data reported in the supplement of paper PMC3334620.
In all, about 33,000 sequences were measured (“E-score (-0.5 to 0.5)”: median about -0.016, highest 2% from about 0.31 on). The list shows a part of the results.

Biological target: Cst6 (UniProt P40535)
Assay: PBM E-score (8-mer binding enrichment) (E-score (-0.5 to 0.5)); higher = stronger / more preferred TF binding; most listed sequences are background and not binding sites
Conditions: protein concentration: 200 nM; construct: GST-DNA-binding domain
Outline: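 GST-tagged yeast TFs (full-length or DNA-binding domain) were made by PURExpress in vitro transcription/translation and applied at about 100-200 nM to universal all-10-mer Agilent arrays. The arrays were made double-stranded by primer extension, on fresh or once-stripped slides. Bound protein was detected with fluorescent anti-GST, and scans were normalised with masliner. Each ungapped eight-base word, pooled with its reverse complement, received an E-score (modified Wilcoxon-Mann-Whitney statistic) from the Universal PBM Analysis Suite.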

Sequence	PBM E-score
TCTCATAA	0.0305
ATGCTCAC	-0.102
CCTTCGCC	-0.244
ATTCGCGG	0.0715
ACATCTCC	-0.0981
CTAATTAA	0.176
AACAATAT	0.37
CACCGGAG	-0.17
AGGGGAGC	-0.314
ACAAACCC	0.00475
GGACGGCC	-0.185
TACGCCCA	-0.0701
CGGTATAG	-0.217
CATCCTTC	0.114
CTTAATGC	0.142
AAACAATT	0.196
AAACGGTG	-0.0215
GAATTTCA	0.0572
CTCATTGC	0.105
CCAGGCAC	-0.149
CCCTCTCG	-0.397
CAACCAAC	-0.175

Sequence	PBM E-score
TTCGGAAA	0.0278
ATTAGATA	0.074
AGCCTCCA	-0.189
CTAGCCTA	-0.2
CCTGACGA	0.182
CGCCCTTC	-0.0927
AGGACGGG	-0.316
TAGCGTAA	0.238
CTCTGCGC	-0.107
AGTATTGC	-0.101
GGTACAAC	-0.0659
CAGAGTTC	-0.0592
CCCGCTAG	-0.231
GCTAAAAC	-0.066
CGCCTCAC	0.135
GAACTTCA	-0.177
GGTGTCAA	0.0296
AGTGCCGA	-0.00913
GAGATAGC	-0.00029
AGCCGCAC	0.188
AACGTCAG	0.371
CATCGTTC	-0.00332

Sequence	PBM E-score
AACGCTGT	0.0633
AATATCCC	0.0228
ATTAGGGC	-0.0911
CAAATGCG	0.107
ATTGAACC	-0.00894
GCAGTTAA	0.0624
TCCTACCA	-0.316
ATTCCTTG	-0.0393
GAAGGAAA	-0.144
TGAGGGCA	-0.164
GGGTCAAC	-0.0874
ACATCTAC	0.138
GGGTTCGA	-0.268
GAACGTAC	-0.122
ATAACTCA	0.075
CTCTTTAA	0.00012
ACTCTTGA	-0.103
GGGCATAA	0.0274
TCAATTAA	0.117
CATACGTA	0.383
GTGATCTA	0.214
ACCACATA	0.149

Sequence	PBM E-score
ACGCATCG	-0.105
AGGCTGAT	-0.161
CCAAAAAA	0.279
GCTCCCCC	-0.379
GGAGCGAC	-0.182
CGTTGGGC	-0.087
GAACTCTA	-0.0178
CACACGAC	-0.0215
AAGTTGTG	0.116
AACAAATA	0.242
ATTACACG	0.205
AAAAACGT	0.107
AGGCTTAC	0.0256
CGGCATAC	0.0732
TCCCACGA	-0.0646
CCGGACTA	-0.0691
GCTAGGTA	-0.192
AGGGTAAG	-0.0709
TAAACGCA	0.12
AGATGAAT	-0.00341
